From PMC7392005
These are yes or no findings as the source states them, for the method shown. In cells and extracts the contact can be indirect. Some entries that bind do so weakly or less than the wild type. Sequences can lack the tags named with a protein.

Biological target: HA-tagged p65 overexpressed in MCF-7 cells, Q04206
Experiment: co-IP; MCF-7 cells overexpressing Flag-tagged CHIP and HA-tagged p65, with or without overexpression of FBP1 (text; the legend says PIM2); total cell lysates
Settings: remark: other sources report otherwise

binding: binds
B1: Flag-tagged CHIP, Q9UNE7 1-303 (enzyme)
chain: MKGKEEKEGGARLGAGGGSPEKSPSAQELKEQGNRLFVGRKYPEAAACYGRAITRNPLVAVYYTNRALCYLKMQQHEQALADCRRALELDGQSVKAHFFLGQCQLEMESYDEAIANLQRAYSLAKEQRLNFGDDIPSALRIAKKKRWNSIEERRIHQESELHSYLSRLIAAERERELEECQRNHEGDEDDSHVRAQQACIEAKHDKYMADMDELFSQVDEKRKKRDIPDYLCGKISFELMREPCITPSGITYDRKDIEEHLQRVGHFDPVTRSPLTQEQLIPNLAMKEVIDAFISENGWVEDY
